From PubChem BioAssay AID1347073 (National Center for Advancing Translational Sciences (NCATS), 2019) come the findings set out here.

Each structure is given as a SMILES string. Among all 45,000 compounds or so, about 200 (0.44%) were called active. About 7% were inconclusive and are not listed. The call rests on the fitted dose curve; in most records, active means well fitted activation curve with a large enough effect; inconclusive means small, poorly fitted or top-dose-only effect; inactive means no such curve, though single readings can be large or run the other way. Some of the results follow.

A short description of the experiment: qHTS of TDP-43 Inhibitors: NCGC Sytravon Library Screen. Further: 0% is about no effect; nearly all actives have a fitted effect of over 55% in size. The following applies: yeast TDP-43 toxicity rescue, BacTiter-Glo growth, 24 h; series mostly up to 46.1 µM; growth rescue (activation): at the top concentration. The method in brief:
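TDP-43-expressing yeast, pregrown in raffinose, seeded at OD600 0.02 in galactose medium with compound for 24 hr at 30 deg C. Growth read by BacTiter-Glo luminescence, so rescue of toxicity appears as activation.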
For orientation: Quantitative high-throughput screening tests each substance at several concentrations.
`CC(NC(=O)COC(=O)c1ccc2c(c1)OCCO2)c1ccccc1` (stereo not drawn): the “growth rescue (activation)” value is inactive: -36.3%.

Turning to `CC1CN(S(=O)(=O)c2cccc(C(=O)OC/C(O)=C(\C#N)c3nc4ccccc4[nH]3)c2)CC(C)O1` (stereo not drawn), the “growth rescue (activation)” value is inactive: -6.1%. The same measure for `CCC(=O)N(Cc1cc2cc(OC)ccc2[nH]c1=O)c1ccc(C)cc1`: inactive: -6.29%; for `O=C(Nc1cc(C(F)(F)F)ccc1Cl)c1cccnc1`: inactive: 10.3%; for `CC(O)(c1cccc(F)c1)c1nc(/C=C/c2ccccc2)cs1` (stereo not drawn): inactive: -0.41%. To `Cc1ccc(OCCn2cc(/C=C(\C#N)C(=O)NCC3CCCO3)c3ccccc32)cc1` (stereo not drawn) belongs inactive: 7.38%; to `CCCC(=O)Nc1ccc2c(c1)nc(CCNC(=O)c1ccco1)n2C`, inactive: -7.12%; to `Cc1cc2nsnc2c(S(=O)(=O)N2CCN(C)CC2)c1C`, inactive: -5.61%. The same measure for `CC(C)C(NC(=O)c1c(F)cccc1F)C(=O)N1CCN(c2ccccc2F)CC1` (stereo not drawn): inactive: -2.81%.

With `CC(=O)c1cnc(Nc2ccc(C)cc2)s1`, the “growth rescue (activation)” value was inactive: 19.1%.

In the case of `COc1cc(Cl)c(C)cc1NC(=O)Cn1c(NCCO)nc2ccccc21`, the “growth rescue (activation)” value was inactive: -10.1%.

On to `COc1cccc(-c2cc3nc(NCc4ccc5occc5c4)n(C)c(=O)c3s2)c1`, for which the “growth rescue (activation)” value was inactive: 4.14%. To `Cc1ccnc(NC(=O)c2ccco2)n1` belongs inactive: -8.91%. To `O=C(COc1ccc(Cl)cc1)NCCCNC(=O)c1ccccn1` belongs inactive: -2.28%; to `COc1ccc(Nc2ccc(N3C(=O)CC(C)C3=O)cc2[N+](=O)[O-])cn1` (stereo not drawn), inactive: 8.62%; to `NC(=O)c1ccc(NC(=O)COc2ccc([N+](=O)[O-])cc2Cl)cc1`, inactive: -1.2%. Regarding `CCNC(=O)Nc1ccc(S(=O)(=O)Nc2cnc(C)nc2C)cc1`, the “growth rescue (activation)” value was inactive: -4.92%. To `COc1ccc(/C=C(/NC(=O)c2cccs2)C(=O)NCc2ccco2)cc1OC` belongs inactive: -1.49%; to `CCCn1c(N)c(N(CCOC)C(=O)c2ccc([N+](=O)[O-])c(C)c2)c(=O)[nH]c1=O`, inactive: -36.7%; to `COc1cccc(CC(NC(C)=O)C(=O)NC2CCN(S(=O)(=O)c3ccc(NC(C)=O)cc3)CC2)c1OC` (stereo not drawn), inactive: -6.95%.

For `Cc1nnc(SCc2cc(=O)[nH]c(/N=C(\N)Nc3ccccc3)n2)s1`, the “growth rescue (activation)” value is inactive: 5.97%.

Regarding `COC(=O)c1c(NC(=O)C2CC=CCC2C(=O)O)sc(C(N)=O)c1C` (stereo not drawn), the “growth rescue (activation)” value was inactive: 13.6%.

For the compound `O=S(=O)(c1ccc(N=C2NN=C(c3cc(F)ccc3F)CS2)cc1)N1CCOCC1`, the “growth rescue (activation)” value is inactive: 12.2%. To `COc1ccc(CCN=C(N)Nc2nc(C)cc(C)n2)cc1` belongs inactive: 1.72%; to `CCc1nc2ccc(C(=O)NCCNC(C)=O)cn2c1N(CC)CCOC`, inactive: 13.4%. As for `Cc1cc(C)cc(NC(=O)c2c(C)nc3ccccn23)c1`, the “growth rescue (activation)” value is inactive: 14.3%.

Consider `COc1cccc(-n2c([S-])c(C(=O)Nc3ccc(S(=O)(=O)N4CCOCC4)cc3)[n+]3cc(C(N)=O)ccc23)c1`, for which the “growth rescue (activation)” value is inactive: 10.1%. To `CCCN(c1ccccc1CC)S(=O)(=O)c1ccc2c(c1)CC(C)N2C(=O)C1CC1` (stereo not drawn) belongs inactive: -2.32%; to `NC(=O)c1ncc(C(F)(F)F)cc1Cl`, inactive: -7.94%; to `CC12CCC(=O)N1C(C(=O)OCC(=O)Nc1ccc(S(N)(=O)=O)cc1)CS2` (stereo not drawn), inactive: 2.02%.

Turning to `Cn1c(Cl)cnc1C1CC(=O)c2cc(Cl)ccc2O1` (stereo not drawn), the “growth rescue (activation)” value was inactive: -77%. The same measure for `CC(=O)N1CCN(c2ccc(NC(=O)c3ccccc3Cl)cc2)CC1`: inactive: -2.94%; for `Cc1ccc(S(=O)(=O)NCC(=O)OCC(=O)N2CC(=O)Nc3ccccc32)cc1`: inactive: -10.1%; for `COc1ccc(/C=C\c2onc(C)c2S(=O)(=O)N2CCC(C(=O)NCc3ccco3)CC2)cc1`: inactive: 7.74%. To `CNC(=O)/C(C#N)=C\c1ccc(CNS(=O)(=O)c2ccccc2)o1` belongs inactive: -17.4%. To `COc1cc2ccccc2cc1C(=O)NC(=S)Nc1nnn(C)n1` belongs inactive: 5.57%.

On to `O=C(COc1ccc(Cl)cc1Cl)NN1C(=O)C2C3C=CC([C@@H]2C1=O)C31CC1` (stereo partly drawn), for which the “growth rescue (activation)” value was inactive: -6.67%. The same measure for `CC(=O)Oc1ccc(/C=N/NC(=O)c2ccc(N(C)S(=O)(=O)c3ccccc3)cc2)cc1`: inactive: -0.0905%. The same measure for `CC(C)(CCO)Nc1ncnc2onc(-c3ccc(F)cc3)c12`: inactive: -4.41%; for `Nc1cc(Cl)nc(N/N=C/c2ccc([N+](=O)[O-])cc2)n1`: inactive: -26.3%; for `CC(C)(O)C#Cc1ccc([C@@H]2C[C@H]3CN(c4ccccc4)C(=O)[C@]34CCCN24)s1`: inactive: -3.38%. The same measure for `CC(NC(=S)NCc1ccccc1)C12CC3CC(CC(C3)C1)C2` (stereo not drawn): inactive: 6.45%; for `Cc1ccc(OCc2cnc(Cl)s2)c(C)c1`: inactive: 12.1%; for `COc1ccc(NC(=O)Cn2nc(C(=O)O)c3ccccc3c2=O)cc1OC`: inactive: -6.2%.

As for `NC(=O)c1ccc(NC(=O)COC(=O)CC(NC(=O)c2ccccc2Cl)c2ccccc2)cc1` (stereo not drawn), the “growth rescue (activation)” value was inactive: 8.21%. On to `O=C(NCc1cccs1)C1CCCN(C(=O)Nc2ccccc2)C1` (stereo not drawn), for which the “growth rescue (activation)” value was inactive: 1.03%. The same measure for `CN(C(=O)COC(=O)c1cc(=O)[nH]c2ccccc12)c1ccccc1`: inactive: 6.7%; for `CC(C)(C)Cc1nnc(NC(=O)c2ccc3c(c2)OCO3)s1`: inactive: 8.11%; for `O=C(NC(=S)N1CCN(Cc2ccccc2)CC1)c1cccnc1`: inactive: 6.91%.

Take `CCOCC(=O)Nc1ccc(OCc2ccccc2)cc1`: the “growth rescue (activation)” value was inactive: 15.6%.

Turning to `Cn1ccnc1SCCNC(=O)CCc1nnc(CCc2ccccc2)o1`, the “growth rescue (activation)” value is inactive: -5.05%. To `CC1(C(=O)Nc2cccc3c2CCCC3)CCN1C(=O)CCc1ccc(Cl)cc1Cl` (stereo not drawn) belongs inactive: 22.2%.

For `Cc1cccc(N(C(=O)c2csnn2)C(C(=O)NCc2ccccc2)c2cccs2)c1` (stereo not drawn), the “growth rescue (activation)” value is inactive: 9.56%. As for `Cc1cccc2sc(NC(=O)Cn3c(C)csc3=O)nc12`, the “growth rescue (activation)” value was inactive: -2.97%.

On to `COc1ccc(OC)c(-n2c(SCC(=O)Nc3cccc(S(N)(=O)=O)c3)nc3ccccc3c2=O)c1`, for which the “growth rescue (activation)” value was inactive: 8.71%. To `COc1ccccc1N1CCN(C(=O)CN(C)S(=O)(=O)c2ccc3c(c2)c(=O)n(C)c(=O)n3C)CC1` belongs inactive: 3.73%; to `O=C(COc1ccc(Cl)cc1)NC(=S)Nc1ccccc1N1CCOCC1`, inactive: 32%. To `CC1COc2ccccc2N1C(=O)c1cccnc1Cl` (stereo not drawn) belongs inactive: 12.4%; to `O=C(Cc1cccs1)N/N=C/C=C/c1ccco1`, inactive: 0.619%; to `Cc1ccc(NC(=O)/C(C#N)=C/c2ccc(C)o2)cc1`, inactive: 29.4%. As to `Cc1ccc(Cn2cc(/C=N/Nc3ccc([N+](=O)[O-])cn3)c3ccccc32)cc1`, the “growth rescue (activation)” value is inactive: 9.71%. Take `COc1ccc(NC(=O)CSc2sc3c(O)cc(=O)[nH]c3c2C#N)c(OC)c1`: the “growth rescue (activation)” value was inactive: 6.94%.

Turning to `COc1ccc(S(=O)(=O)N2CCCCC2)cc1NC(=O)CN1CCN(C(C)=O)CC1`, the “growth rescue (activation)” value is inactive: 14.6%.

Regarding `Cc1cc(NC(=O)c2cccc([N+](=O)[O-])c2)n(-c2ccccc2)n1`, the “growth rescue (activation)” value was inactive: 19.9%.

For the compound `COCCCNc1nc(N)c([N+](=O)[O-])c(NCC2CCCO2)n1` (stereo not drawn), the “growth rescue (activation)” value is inactive: -3.55%.

For the compound `Cc1ccc(/C=C/C(=O)Nc2nnc(SCc3ccc(C#N)cc3)s2)o1`, the “growth rescue (activation)” value is inactive: 22.3%.

Take `CCOC(=O)C1(Cc2ccccc2C)CCCN(C(=O)CSC)C1` (stereo not drawn): the “growth rescue (activation)” value was inactive: 18.1%. To `COCc1cc(C)nc(SCC(=O)Nc2nc(C)cs2)c1C#N` belongs inactive: 23.3%; to `CC(C)(C)N(Cc1ccccc1)C(=O)COC(=O)CCc1c[nH]c2ccccc12`, inactive: 18.6%. To `Cc1ccc(NS(=O)(=O)c2ccc(C)c(NC(=O)COc3ccc4ccccc4c3)c2)c(C)c1` belongs inactive: 12.7%; to `CC(C)CC(C(=O)NC1CCCCC1)N(Cc1ccccc1)C(=O)c1snc(C(N)=O)c1N` (stereo not drawn), inactive: -18%. To `COc1ccc(NC(=O)C2C3C=CC4(O3)C2C(=O)N(CCCN2CCCCC2)C4C(=O)NC2CCCC(C)C2C)cc1` (stereo not drawn) belongs inactive: -27%.

Take `Cc1ccc(S(=O)(=O)N2CCN(C(=O)CNC(=O)c3ccc(Cl)cc3)CC2)cc1`: the “growth rescue (activation)” value was inactive: -25.6%. Turning to `Cc1ccccc1NC(=O)c1cccc(S(=O)(=O)N2CCOCC2)c1`, the “growth rescue (activation)” value is inactive: 13.7%. The same measure for `FC(F)(F)c1nc(NCc2cccnc2)c2ccccc2n1`: inactive: 5.6%. As to `CCOC(=O)c1c(CN(CC)CC)n(-c2ccccc2)c2ccc(O)cc12`, the “growth rescue (activation)” value was inactive: 8.37%. The same measure for `CNc1ccc2ncc(-c3ccccc3C(C)=O)n2n1`: inactive: 5.21%. As to `COc1ccc(CCNC(=O)C(C)c2ccc([N+](=O)[O-])cc2)cc1` (stereo not drawn), the “growth rescue (activation)” value is inactive: 32.4%.

As for `CCOc1ccccc1Nc1cc2n(c(=O)n1)CCc1cc(OC)c(OC)cc1-2`, the “growth rescue (activation)” value is inactive: 15.4%.

In the case of `COc1ccc(NC(=O)c2cc(F)cc(F)c2)cc1S(=O)(=O)N1CCCCC1`, the “growth rescue (activation)” value was inactive: 13.7%. On to `CS(=O)(=O)Nc1ccccc1Oc1ccccc1`, for which the “growth rescue (activation)” value was inactive: 37%. On to `O=C(NCCCO)c1cc2c([nH]c3ccccc32)c(-c2ccc(F)cc2)n1`, for which the “growth rescue (activation)” value is inactive: -6.29%. To `Cc1ccccc1C(=O)N1CCC(C(=O)N2CCN(Cc3ccc4c(c3)OCO4)CC2)CC1` belongs inactive: 16.7%. To `COc1ccc(NC(=O)C2CCCCC2)cc1S(=O)(=O)N1CCOCC1` belongs inactive: -9.61%. To `CCCCC(=O)/C=C/n1c(=S)oc2ccccc21` belongs inactive: 21.1%; to `COc1ccc(CNC(=O)CN(c2ccccc2)S(=O)(=O)N(C)C)cc1`, inactive: -1.83%; to `CN(Cc1ccccc1)C(=O)c1ccc2sc([C@@H]3O[C@H](CO)[C@H](O)[C@H](O)[C@H]3O)nc2c1`, inactive: 3.54%.

As to `CCC(C)(C)C(=O)Nc1cc([N+](=O)[O-])ccc1F`, the “growth rescue (activation)” value was inactive: 11.2%. Take `CC1CC(CCC(=O)NC(=S)Nc2ccc(Cl)cn2)C(=O)O1` (stereo not drawn): the “growth rescue (activation)” value was inactive: 28.9%. The same measure for `CN(CC(=O)Nc1ccc(S(=O)(=O)N2CCCC2)cc1)Cc1ccc(Cl)c(Cl)c1`: inactive: -24.5%; for `CCCn1nc([N+](=O)[O-])c(C(C#N)c2nc3ccccc3o2)c(Cl)c1=O` (stereo not drawn): inactive: -10.6%; for `O=C(CC(=O)Nc1ccc(F)cc1)Nc1ccc(F)cc1`: inactive: -8.63%. To `O=C(Nc1ccnn1C1CCN(Cc2cccc(F)c2F)CC1)C1CCCC1` belongs inactive: 21.6%; to `CCCCCCCCCCOC(=O)Cn1c(COc2ccccc2OC)[n+](C)c2ccccc21`, inactive: -69.3%. On to `Cc1ccc(N(CC(=O)NC(C)(C)C)C(=O)CS(=O)CC(=O)Nc2ccc(F)cc2)cc1` (stereo not drawn), for which the “growth rescue (activation)” value is inactive: 1.94%. For `O=C(Nc1cc(-c2nc3ncccc3o2)ccc1Cl)c1ccc([N+](=O)[O-])o1`, the “growth rescue (activation)” value is inactive: 7.61%.

On to `O=C1c2ccccc2CN1c1ccccc1`, for which the “growth rescue (activation)” value is inactive: -2.65%. Regarding `O=C(CCCN1C(=O)c2ccccc2C1=O)NC1=NCCS1`, the “growth rescue (activation)” value was inactive: 12.6%. Turning to `CCOC(=O)c1cc2c(nc1NC(=S)NCc1ccccc1)CCCC2`, the “growth rescue (activation)” value was inactive: 1.82%.

In the case of `COc1ccc(C(=O)NC(=S)Nc2ccc(Cl)c(C(=O)O)c2)cc1`, the “growth rescue (activation)” value was inactive: 1.52%. Take `CCOC(=O)C1(Cc2cccc(Cl)c2)CCCN(C(=O)c2cccnc2)C1` (stereo not drawn): the “growth rescue (activation)” value is inactive: -2.42%. To `COc1ccc(NC(=O)C2CCC(=O)N2S(=O)(=O)c2ccc(C)cc2)cc1Cl` (stereo not drawn) belongs inactive: 8.44%; to `O=C(c1cccnc1)C1CCCN(Cc2nc(Cc3ccccc3F)no2)C1` (stereo not drawn), inactive: 11.2%.
